Test results as given in publication PMC4336329 (PLoS ONE, 2015).
The whole screen tested about 310,000 compounds, of which about 14,000 (4.5%) showed an effect of 50% or more. Effects have a minus sign here. Some of the results follow.

Each compound was assayed against human ether-à-go-go-related gene (hERG) potassium channel (human, UniProt Q12809) (assay: primary screen, population patch clamp on CHO cells stably expressing hERG).
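Further: peak tail current of the secondary pulse compared with the same well before compound.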

Chain of human ether-à-go-go-related gene (hERG) potassium channel (Q12809 whole entry, looked up): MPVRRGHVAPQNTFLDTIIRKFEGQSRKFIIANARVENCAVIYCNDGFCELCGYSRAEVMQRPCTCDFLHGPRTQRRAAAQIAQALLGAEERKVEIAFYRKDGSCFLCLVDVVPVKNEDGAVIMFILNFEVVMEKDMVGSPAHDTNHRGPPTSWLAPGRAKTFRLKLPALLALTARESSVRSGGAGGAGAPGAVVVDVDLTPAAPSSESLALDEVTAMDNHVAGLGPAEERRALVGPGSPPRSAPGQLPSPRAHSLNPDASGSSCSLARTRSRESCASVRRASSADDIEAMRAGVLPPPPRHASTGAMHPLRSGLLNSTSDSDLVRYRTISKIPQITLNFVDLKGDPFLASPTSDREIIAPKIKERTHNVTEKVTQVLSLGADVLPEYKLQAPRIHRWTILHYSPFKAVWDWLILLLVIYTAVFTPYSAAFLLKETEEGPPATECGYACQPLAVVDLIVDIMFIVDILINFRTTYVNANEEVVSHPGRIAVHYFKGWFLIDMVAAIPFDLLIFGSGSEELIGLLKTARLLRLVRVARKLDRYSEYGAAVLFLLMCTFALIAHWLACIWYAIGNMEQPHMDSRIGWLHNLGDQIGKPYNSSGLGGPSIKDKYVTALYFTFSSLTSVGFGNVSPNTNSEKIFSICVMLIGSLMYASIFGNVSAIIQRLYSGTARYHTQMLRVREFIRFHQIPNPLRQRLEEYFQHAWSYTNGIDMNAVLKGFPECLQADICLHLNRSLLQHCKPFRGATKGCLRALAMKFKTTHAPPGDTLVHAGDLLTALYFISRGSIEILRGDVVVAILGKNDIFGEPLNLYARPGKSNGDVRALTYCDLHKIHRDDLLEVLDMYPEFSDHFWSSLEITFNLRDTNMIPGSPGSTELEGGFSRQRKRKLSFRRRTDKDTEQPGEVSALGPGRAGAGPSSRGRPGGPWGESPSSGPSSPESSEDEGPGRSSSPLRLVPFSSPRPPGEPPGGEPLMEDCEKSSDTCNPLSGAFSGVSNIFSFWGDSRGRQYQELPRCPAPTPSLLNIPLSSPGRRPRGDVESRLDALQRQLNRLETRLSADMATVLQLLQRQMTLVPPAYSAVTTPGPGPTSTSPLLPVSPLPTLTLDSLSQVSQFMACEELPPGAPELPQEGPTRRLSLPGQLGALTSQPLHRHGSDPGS

Structure (SMILES)	hERG current change (%, negative = inhibition) at 10uM [%]
Cc1ccc(S(C)(=O)=O)cc1C(=O)N1CC(C(N)=O)Oc2ccccc21 (stereo not shown)	15.6
Cc1nn(CC(=O)c2ccc(Br)s2)c(C)c1[N+](=O)[O-]	-3.49
COc1ccc(OC)c(C2C3CN(C(C)C)CC=C3C(C#N)=C(N)C2(C#N)C#N)c1 (stereo not shown)	-16.2
Cc1ccc(C2(C)NC(=O)N(CC(=O)Nc3nc(-c4ccccn4)cs3)C2=O)cc1 (stereo not shown)	-5.26
O=C(CSc1nc(-c2ccccc2)cc(=O)[nH]1)N1CCc2ccccc21	6.68
O=C(NCCc1ccc(F)cc1)C(=O)Nc1cc2c3c(c1)CC(=O)N3CCC2	-22
CCOc1ccc(NS(=O)(=O)c2ccc(OC)c(C)c2)cc1	-4.92
O=C1CC(SCc2nc3ccccc3[nH]2)C(=O)N1c1cccc(Cl)c1 (stereo not shown)	-43.6
CCOC(=O)C1=C(c2ccccc2)Nc2ncnn2C1c1ccccn1 (stereo not shown)	13.6
COC(=O)c1cnc[nH]1	-2.52
COc1ccc(-c2[nH]ncc2CN2C[C@@H]3CCC[C@H]2C3)c(F)c1	8.16
CC(=O)Nc1nnc(Cc2ccccc2)s1	8.52
CCC1CCCCN1C(=O)COc1c(Br)cc(Br)c2cccnc12 (stereo not shown)	-40.1
Cc1cc(=O)n2[nH]c(-c3ccc(F)cc3)cc2n1	8.47
CC(=O)Nc1ccc(S(=O)(=O)NCCC(=O)NCCCc2ccccc2)cc1	-4.34
COc1ccc(/C=N/n2cncn2)cc1Cn1cc([N+](=O)[O-])cn1	-32.1
COCCCN(C(=O)c1cc2c(s1)CCC2)c1c(N)n(Cc2ccccc2)c(=O)[nH]c1=O	9.69
O=C(CN(Cc1ccccc1F)C(=O)c1csnn1)NCc1ccc2c(c1)OCO2	-22
COCc1c(Br)c(C)nc(OCC(=O)N/N=C/c2ccc(C)o2)c1C#N	3.75
CCc1ccc(/C=N/n2c(COc3ccccc3)n[nH]c2=S)cc1	20.4

Structure (SMILES)	hERG current change (%, negative = inhibition) at 10uM [%]
O=C(NCc1cccc(C(F)(F)F)c1)c1cc(Cl)ccc1Cl	20.9
COc1ccc2[nH]cc(CCNC(=O)COc3cc(C)cc4oc(=O)cc(C)c34)c2c1	-24.3
O=C(NCCN1C(=O)C2C3C=CC(C3)C2C1=O)Nc1ccccn1 (stereo not shown)	3.05
COc1ccc(C(=O)COc2cccc(NC(=O)c3ccco3)c2)cc1	-32.8
CCCOc1ccccc1NC(=O)c1ccc(N)cc1	-19.9
CSc1ccccc1NC(=S)NC1CCCCC1	4.6
COc1ccc(S(=O)(=O)Cc2ccc(C(=O)NC3CC3)o2)cc1	-2.21
CCOC(=O)c1cccc(-n2c(C)nc3ccccc3c2=O)c1	-2.44
CC1CC(CCC(=O)NC(=S)Nc2ccc(S(N)(=O)=O)cc2)C(=O)O1 (stereo not shown)	14.5
CCC1(C)CC(CC(=O)O)(c2ccccc2OC)CCO1 (stereo not shown)	1.8
CCOC(=O)Cc1csc(NC(=O)c2sc3nc4ccc(CC)cc4cc3c2N)n1	0.191
CC(C)c1ccc(N(CC(=O)NCCc2ccccc2)C(=O)c2csnn2)cc1	-60
Cc1cccc(NC(=O)C2CC(O)CN2C(=O)OCc2ccccc2)c1 (stereo not shown)	-0.191
Cc1ccc(S(=O)(=O)NCCC(=O)N2CCC(C(N)=O)CC2)cc1C	-6.54
COc1ccc(NC(=O)CSc2nncn2C)cc1	24.7
Cc1ccc2cccc(SCC(=O)Nc3ccc(F)cc3)c2n1	2.39
N#Cc1ccccc1Sc1ccccc1C(=O)OCC(=O)NC1CCCCC1	-3.71
Cc1ccc2[nH]c3ccccc3c(=O)c2c1	5.96
Cc1cc2ncn(CC(C)C)c2cc1C	-3.79
CC(OC(=O)c1ccc(-n2cnnn2)cc1)C(=O)Nc1ccccc1[N+](=O)[O-] (stereo not shown)	-21.6

Structure (SMILES)	hERG current change (%, negative = inhibition) at 10uM [%]
CCOC(=O)c1cccc(P(C)(C)=O)c1	11
O=C(CCc1cn(Cc2ccc(F)cc2)c2ccccc12)N1CCOCC1	-16.4
Cc1ccc(-n2c(C)cc(/C=N/NC(N)=S)c2C)cc1	6.94
COc1cc2c(cc1OC)C(NC(=O)C(F)(F)F)C/C2=N\O (stereo not shown)	-38.2
Cc1nnc(Cl)c2nn(-c3ccccc3)c(C)c12	16.3
O=S(=O)(N/N=C\c1ccc2c(c1)OCO2)c1ccc(F)cc1	17.3
Cn1c(=O)c2c(nc(Oc3ccc4c(c3)OCO4)n2Cc2ccc(F)cc2)n(C)c1=O	7.27
COCCSc1ccccc1C(=O)Nc1nccs1	-2.77
COc1ccc(C(=O)Nc2ccc(/C(C)=N/NC(=O)c3ccncc3)cc2)cc1	-33.5
COc1ccc(OCc2nnc3n2N=C(c2ccc(C)cc2)CS3)cc1	8.09
O=S1(=O)N[C@H](c2ccccc2)C[C@H](c2ccc(C(F)(F)F)cc2)O1	11.4
COc1ccc(Sc2cc(C(F)(F)F)nc(-c3ccccn3)n2)cc1	-27.1
CCN(CC(=O)NCc1cccs1)C(=O)c1cccc(S(=O)(=O)Nc2ccc(OC)cc2)c1	-37.4
Cc1ccc(-c2nnn(CC(=O)Nc3ccc(S(=O)(=O)N4CCC(C)CC4)cc3)n2)cc1	-4.92
CCC(CC)COC(=O)C1=C(C)NC(=O)NC1c1ccc([N+](=O)[O-])cc1 (stereo not shown)	11.6
Cc1ccc(S(=O)(=O)NC2CC(C)(C)NC(C)(C)C2)cc1	29.9
Cc1nn2cc(-c3cccc(Cl)c3)cnc2c1Cl	11.6
O=c1cc(CN2CCN(c3cccc(C(F)(F)F)c3)CC2)nc2sccn12	-46.3
